# Data: PubChem BioAssay AID686978 (National Center for Advancing Translational Sciences (NCATS), 2013)
# Several values for one entry are separate records, joined by “and”; a condition that tells them apart may be missing. Identical values can stand only once. About 64,000 (15%) of roughly 420,000 compounds were called active. Inconclusive results, whose numbers are uncertain, are shown with a selection of clear calls. The call rests on the fitted dose curve; in most records, active means well fitted inhibition curve with a large enough effect; inconclusive means small, poorly fitted or top-dose-only effect; inactive means flat fitted curve, though single readings scatter. Potencies beside an inconclusive call are fits to weak or partial responses and may not hold up.
# Experiment: qHTS for Inhibitors of human tyrosyl-DNA phosphodiesterase 1 (TDP1): qHTS in cells in absence of CPT; further: nearly all actives have a fitted effect of over 55% in size
# Conditions: DT40 Tdp1-/- hTDP1 cells, no CPT, ATP luminescence, 48 h; activity change, negative = growth inhibition: at 46.2 µM (top of the series) unless noted
# How it was run: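 Growth kinetics read by CellTiter-Glo luminescence after ≥48 hr at 37 °C. Cells: DT40 Tdp1-/- stably carrying human TDP1, 400 per well, compound exposure in the absence of CPT (DMSO vehicle).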
# On the % scale 0 is the no-effect control and ±100 the full control effect; potency means the concentration at half of the fitted maximal effect; tags describe the fitted curve by direction and shape.
Structure (SMILES),"activity change, negative = growth inhibition",Potency
CN1CCN(C2CCCCC2NS(=O)(=O)c2ccccc2)CC1 (configuration not stated),inactive: 17.6%,–
COc1ccc(C2Nc3ccccc3-n3c(-c4ccccc4)c4c(=O)n(C)c(=O)n(C)c4c32)cc1 (configuration not stated),–,"inconclusive: 29.1 µM [inhibitor, single point]"
O=C(Nc1ccc(S(=O)(=O)N2CCCC2)cc1)c1cc(F)c(F)cc1Cl,–,"inconclusive: 16.4 µM [inhibitor, single point]"
S=C1SCN(CC2CC2)CN1CC1CC1,–,active: 4.61 µM
COc1ccccc1-c1noc(-c2ccc(NCc3ccccc3)c([N+](=O)[O-])c2)n1,–,"inconclusive: 7.31 µM [inhibitor, partial curve]"
Cc1cccc(OCC(=O)N(Cc2ccco2)C2CCS(=O)(=O)C2)c1C (configuration not stated),–,"inconclusive: 29.1 µM [inhibitor, single point]"
c1ccc(C2CCC(N3CCNCC3)CC2)cc1 (configuration not stated),inactive: -9.97%,–
COc1ccccc1CNc1cc(C)ccn1,inactive: -26.6%,–
CCOC(=O)c1ccccc1NC(=O)COC(=O)CC1CCCCC1,–,"inconclusive: 23.1 µM [inhibitor, partial curve]"
Fc1ccc(NC(=S)NC2CCN(Cc3ccccc3)CC2)cc1,–,"inconclusive: 25.9 µM [inhibitor, single point]"
Cn1c(SCC(=O)c2ccccc2)ncc(C(=O)Nc2ccc(F)cc2)c1=O,inactive: -26.2%,–
COc1ccc(Cc2[nH]n3c(=O)cc(C)nc3c2-c2ccccc2)cc1,–,"inconclusive: 29.1 µM [inhibitor, single point]"
O=C(CC1C[C@H](C(=O)N2CCOCC2)[C@@]2(CCC3CCCC3)c3[nH]c4ccccc4c3CCN2C1=O)NCC12CC3CC(CC(C3)C1)C2 (some centres not stated),–,active: 16.4 µM
Cc1cc(-c2ccnc(-n3ncc(C(=O)NCc4cccnc4)c3C3CC3)n2)c(C)s1,inconclusive: -33.4% [inhibitor],–
COc1cccc(/C=N/NC(=O)c2ccoc2C)c1O,–,active: 0.731 µM
COc1ccc(C)cc1NC(=O)CN(C)S(=O)(=O)c1ccc2c(c1)CCCN2C(C)=O,–,"inconclusive: 29.1 µM [inhibitor, single point]"
COc1cccc(-c2nnc(NC(=O)c3ccccc3Br)o2)c1,–,"inconclusive: 16.4 µM [inhibitor, partial curve, poor fit]"
Cc1ccc2nc(C)c3c(c2c1)N(c1ccc(F)cc1)CC3,–,"inconclusive: 18.4 µM [inhibitor, single point]"
COc1ccc(F)cc1C1=CC(=O)C[C@H](c2ccc3c(c2)OCO3)C1,–,active: 13 µM

Structure (SMILES),"activity change, negative = growth inhibition",Potency
Cc1cc(/C=N/n2cnnc2)c(C)n1-c1cccc(C(=O)O)c1,inactive: -0.81%,–
CCOc1ccc(C(O)Cn2c(=N)n(CCN3CCCCC3)c3ccccc32)cc1 (configuration not stated),–,active: 23.1 µM
O=C(NNC(=O)c1cccnc1SCc1cccc([N+](=O)[O-])c1)c1ccccn1,–,active: 2.59 µM
CCc1nc2c(OCc3ccccc3C(=O)OC)cccn2c1N(C)C(=O)CC(C)C,–,active: 13 µM
CCCCc1ccc(NC(=O)CC(C)=O)cc1,inactive: -8.78%,–
CC(C)(C)c1ccc(OCc2cnc(Cl)s2)cc1,–,"inconclusive: 29.1 µM [inhibitor, single point]"
O=C(c1ccc(F)cc1)C1CCN(Cc2ccccc2F)CC1,–,"inconclusive: 23.1 µM [inhibitor, single point]"
CC1=C(c2cccc(Cl)c2)S(=O)(=O)NC1=NCc1ccccc1C,–,"inconclusive: 6.51 µM [inhibitor, full curve, poor fit]"
COc1ccc(C)cc1NC(=O)CN1C(=O)CSc2ccc(S(=O)(=O)N3CCCC3)cc21,–,"inconclusive: 14.6 µM [inhibitor, partial curve] and inconclusive: 23.1 µM [inhibitor, single point]"
CN(C)c1ccc(/C=C/c2ccnc3c2ccc2ccccc23)cc1,–,"inconclusive: 22.4 µM [inhibitor, single point]"
COc1ccc(OC)c(NC(=O)CCN2C(=O)c3cccc([N+](=O)[O-])c3C2=O)c1,inactive: 22.6%,–
Cc1ccc(N2C(=O)CC(N3CCN(c4ccc(F)cc4)CC3)C2=O)c(C)c1 (configuration not stated),inactive: -5.41%,–
COc1ccc(-c2cc(C(=O)Nc3cc(C)n(Cc4ccc(Cl)cc4)n3)no2)cc1OC,–,"inconclusive: 25.9 µM [inhibitor, single point]"
O=S(=O)(c1ccc2c(c1)OCCO2)N1CCC(n2nnc3cc(C(F)(F)F)ccc32)CC1,–,active: 16.4 µM
Cn1c2c(c(=O)n(C)c1=O)C(C(F)(F)F)(C(F)(F)F)N=C(C1CCCCC1)N2,–,active: 25.9 µM
CC(=O)c1sc(NC(=O)CCc2ccccc2)nc1C,–,"inconclusive: 29.1 µM [inhibitor, single point]"
COc1cc(NC(=O)c2cccs2)c(C(=O)OCC(=O)c2cc(C)n(-c3ccc(F)cc3)c2C)cc1OC,–,"inconclusive: 25.9 µM [inhibitor, single point]"
CC(=O)N1CCc2c(sc3c2c(=O)n(Cc2ccccc2)c(=O)n3Cc2cccc(Cl)c2)C1,–,"inconclusive: 29.1 µM [inhibitor, single point]"
